# Some of the results follow.
# B1: Cohesin-hDCIR (Homo sapiens) (protein)
# chain: LDDLDAVRIKVDTVNAKPGDTVRIPVRFSGIPSKGIANCDFVYSYDPNVLEIIEIEPGDIIVDPNPDKSFDTAVYPDRKIIVFLFAEDSGTGAYAITKDGVFATIVAKVKEGAPNGLSVIKFVEVGGFANNDLVEQKTQFFDGGANVGDTTEPATPTTPVTTPTTTDDLDAASQKYSQLLEKKTTKELVHTTLECVKKNMPVEETAWSCCPKNWKSFSSNCYFISTESASWQDSEKDCARMEAHLLVINTQEEQDFIFQNLQEESAYFVGLSDPEGQRHWQWVDQTPYNESSTFWHPREPSDPNERCVVLNFRKSPKRWGWNDVNCLGPQRSVCEMMKIHLHHHHHH
# Legend:
# Experiment in all cases: glycan array binding signal (z-score within array); higher = stronger binding
# Settings in all cases: glycan notation: IUPAC condensed, linker removed
# [1] = biological target: Gal(b1-4)GlcNAc(b1-3)Gal(b1-4)GlcNAc(b1-2)[Gal(b1-4)GlcNAc(b1-3)Gal(b1-4)GlcNAc(b1-6)]Man(a1-6)[Gal(b1-4)GlcNAc(b1-3)Gal(b1-4)GlcNAc(b1-2)Man(a1-3)]Man(b1-4)GlcNAc(b1-4)GlcNAc
# Outline: (§1)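 Arrays were curated from the Consortium for Functional Glycomics database, 3228 in total, and kept only where the protein sequence was available. Binding is expressed as a within-array Z-score. This score was averaged across arrays of the same protein sequence at different concentrations or buffers and across linkers, and negative values can be read as non-binding.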
# [2] = biological target: Gal(b1-4)GlcNAc(b1-3)Gal(b1-4)GlcNAc(b1-2)[Gal(b1-4)GlcNAc(b1-3)Gal(b1-4)GlcNAc(b1-6)]Man(a1-6)[Gal(b1-4)GlcNAc(b1-3)Gal(b1-4)GlcNAc(b1-2)Man(a1-3)]Man(b1-4)GlcNAc(b1-4)[Fuc(a1-6)]GlcNAc
# Outline: as §1
# [3] = biological target: Gal(b1-4)GlcNAc(b1-3)Gal(b1-4)GlcNAc(b1-3)Gal(b1-4)GlcNAc
# Outline: as §1
# [4] = biological target: Gal(b1-4)GlcNAc(b1-3)Gal(b1-4)GlcNAc(b1-3)Gal(b1-4)GlcNAc(b1-2)Man(a1-3)[Gal(b1-4)GlcNAc(b1-3)Gal(b1-4)GlcNAc(b1-3)Gal(b1-4)GlcNAc(b1-2)Man(a1-6)]Man(b1-4)GlcNAc(b1-4)GlcNAc
# Outline: as §1
# [5] = biological target: Gal(b1-4)GlcNAc(b1-3)Gal(b1-4)GlcNAc(b1-3)Gal(b1-4)GlcNAc(b1-2)Man(a1-3)[Gal(b1-4)GlcNAc(b1-3)Gal(b1-4)GlcNAc(b1-3)Gal(b1-4)GlcNAc(b1-2)Man(a1-6)]Man(b1-4)GlcNAc(b1-4)[Fuc(a1-6)]GlcNAc
# Outline: as §1
# [6] = biological target: Gal(b1-4)GlcNAc(b1-3)Gal(b1-4)GlcNAc(b1-3)Gal(b1-4)GlcNAc(b1-2)[Gal(b1-4)GlcNAc(b1-3)Gal(b1-4)GlcNAc(b1-3)Gal(b1-4)GlcNAc(b1-6)]Man(a1-6)[Gal(b1-4)GlcNAc(b1-3)Gal(b1-4)GlcNAc(b1-3)Gal(b1-4)GlcNAc(b1-2)Man(a1-3)]Man(b1-4)GlcNAc(b1-4)[Fuc(a1-6)]GlcNAc
# Outline: as §1
# [7] = biological target: Gal(b1-4)GlcNAc(b1-3)Gal(b1-4)GlcNAc(b1-3)Gal(b1-4)GlcNAc(b1-3)Gal(b1-4)GlcNAc(b1-2)Man(a1-3)[Gal(b1-4)GlcNAc(b1-3)Gal(b1-4)GlcNAc(b1-3)Gal(b1-4)GlcNAc(b1-3)Gal(b1-4)GlcNAc(b1-2)Man(a1-6)]Man(b1-4)GlcNAc(b1-4)GlcNAc
# Outline: as §1
# [8] = biological target: Gal(b1-4)GlcNAc(b1-3)Gal(b1-4)GlcNAc(b1-3)Gal(b1-4)GlcNAc(b1-3)Gal(b1-4)GlcNAc(b1-2)Man(a1-3)[Gal(b1-4)GlcNAc(b1-3)Gal(b1-4)GlcNAc(b1-3)Gal(b1-4)GlcNAc(b1-3)Gal(b1-4)GlcNAc(b1-2)Man(a1-6)]Man(b1-4)GlcNAc(b1-4)[Fuc(a1-6)]GlcNAc
# Outline: as §1
# [9] = biological target: Gal(b1-4)GlcNAc(b1-3)Gal(b1-4)GlcNAc(b1-3)Gal(b1-4)GlcNAc(b1-3)Gal(b1-4)GlcNAc(b1-2)[Gal(b1-4)GlcNAc(b1-3)Gal(b1-4)GlcNAc(b1-3)Gal(b1-4)GlcNAc(b1-3)Gal(b1-4)GlcNAc(b1-6)]Man(a1-6)[Gal(b1-4)GlcNAc(b1-3)Gal(b1-4)GlcNAc(b1-3)Gal(b1-4)GlcNAc(b1-3)Gal(b1-4)GlcNAc(b1-2)Man(a1-3)]Man(b1-4)GlcNAc(b1-4)[Fuc(a1-6)]GlcNAc
# Outline: as §1
# [10] = biological target: Gal(b1-4)GlcNAc(b1-3)Gal(b1-4)GlcNAc(b1-3)Gal(b1-4)GlcNAc(b1-3)Gal(b1-4)GlcNAc(b1-3)Gal(b1-4)GlcNAc(b1-2)Man(a1-3)[Gal(b1-4)GlcNAc(b1-3)Gal(b1-4)GlcNAc(b1-3)Gal(b1-4)GlcNAc(b1-3)Gal(b1-4)GlcNAc(b1-3)Gal(b1-4)GlcNAc(b1-2)Man(a1-6)]Man(b1-4)GlcNAc(b1-4)GlcNAc
# Outline: as §1
# [11] = biological target: Gal(b1-4)GlcNAc(b1-3)Gal(b1-4)GlcNAc(b1-3)Gal(b1-4)GlcNAc(b1-3)Gal(b1-4)GlcNAc(b1-3)Gal(b1-4)GlcNAc(b1-2)Man(a1-3)[Gal(b1-4)GlcNAc(b1-3)Gal(b1-4)GlcNAc(b1-3)Gal(b1-4)GlcNAc(b1-3)Gal(b1-4)GlcNAc(b1-3)Gal(b1-4)GlcNAc(b1-2)Man(a1-6)]Man(b1-4)GlcNAc(b1-4)[Fuc(a1-6)]GlcNAc
# Outline: as §1
# [12] = biological target: Gal(b1-4)GlcNAc(b1-3)Gal(b1-4)GlcNAc(b1-3)Gal(b1-4)GlcNAc(b1-3)Gal(b1-4)GlcNAc(b1-3)Gal(b1-4)GlcNAc(b1-2)[Gal(b1-4)GlcNAc(b1-3)Gal(b1-4)GlcNAc(b1-3)Gal(b1-4)GlcNAc(b1-3)Gal(b1-4)GlcNAc(b1-3)Gal(b1-4)GlcNAc(b1-6)]Man(a1-6)[Gal(b1-4)GlcNAc(b1-3)Gal(b1-4)GlcNAc(b1-3)Gal(b1-4)GlcNAc(b1-3)Gal(b1-4)GlcNAc(b1-3)Gal(b1-4)GlcNAc(b1-2)Man(a1-3)]Man(b1-4)GlcNAc(b1-4)[Fuc(a1-6)]GlcNAc
# Outline: as §1
# [13] = biological target: Gal(b1-4)GlcNAc(b1-3)Gal(b1-4)GlcNAc(b1-3)Gal(b1-4)GlcNAc(b1-3)Gal(b1-4)GlcNAc(b1-3)Gal(b1-4)GlcNAc(b1-3)Gal(b1-4)GlcNAc(b1-2)Man(a1-3)[Gal(b1-4)GlcNAc(b1-3)Gal(b1-4)GlcNAc(b1-3)Gal(b1-4)GlcNAc(b1-3)Gal(b1-4)GlcNAc(b1-3)Gal(b1-4)GlcNAc(b1-3)Gal(b1-4)GlcNAc(b1-2)Man(a1-6)]Man(b1-4)GlcNAc(b1-4)GlcNAc
# Outline: as §1
# [14] = biological target: Gal(b1-4)GlcNAc(b1-3)Gal(b1-4)GlcNAc(b1-3)GalNAc
# Outline: as §1
# [15] = biological target: Gal(b1-4)GlcNAc(b1-3)Gal(b1-4)GlcNAc(b1-3)[Gal(b1-4)GlcNAc(b1-3)Gal(b1-4)GlcNAc(b1-6)]GalNAc
# Outline: as §1
# [16] = biological target: Gal(b1-4)GlcNAc(b1-3)Gal(b1-4)GlcNAc(b1-6)[Gal(b1-3)]GalNAc
# Outline: as §1
# [17] = biological target: Gal(b1-4)GlcNAc(b1-3)Gal(b1-4)[Fuc(a1-3)]GlcNAc(b1-3)Gal(b1-4)[Fuc(a1-3)]GlcNAc
# Outline: as §1
# [18] = biological target: Gal(b1-4)GlcNAc(b1-3)GalNAc
# Outline: as §1
# [19] = biological target: Gal(b1-4)GlcNAc(b1-3)[Fuc(a1-3)GlcNAc(b1-6)]Gal(b1-4)Glc
# Outline: as §1
# [20] = biological target: Gal(b1-4)GlcNAc(b1-3)[Gal(b1-4)GlcNAc(b1-6)]Gal(b1-4)GlcNAc
# Outline: as §1
# [21] = biological target: Gal(b1-4)GlcNAc(b1-3)[GlcNAc(b1-6)]Gal(b1-4)GlcNAc
# Outline: as §1
# [22] = biological target: Gal(b1-4)GlcNAc(b1-6)Gal(b1-4)GlcNAc
# Outline: as §1
# [23] = biological target: Gal(b1-4)GlcNAc(b1-6)GalNAc
# Outline: as §1
# [24] = biological target: Gal(b1-4)GlcNAc(b1-6)[Gal(b1-3)]GalNAc
# Outline: as §1
# [25] = biological target: Gal(b1-4)GlcNAc(b1-6)[Gal(b1-4)GlcNAc(b1-3)]GalNAc
# Outline: as §1
# Gal(b1-4)GlcNAc6P = biological target: Gal(b1-4)GlcNAc6P
# Outline: as §1
# Gal(b1-6)Gal = biological target: Gal(b1-6)Gal
# Outline: as §1
# Gal3S(b1-3)GalNAc = biological target: Gal3S(b1-3)GalNAc
# Outline: as §1
# Gal3S(b1-3)GlcNAc = biological target: Gal3S(b1-3)GlcNAc
# Outline: as §1
# [26] = biological target: Gal3S(b1-3)[Fuc(a1-4)]GlcNAc
# Outline: as §1
# Gal3S(b1-4)Glc = biological target: Gal3S(b1-4)Glc
# Outline: as §1
# Gal3S(b1-4)Glc6S = biological target: Gal3S(b1-4)Glc6S
# Outline: as §1
# Gal3S(b1-4)GlcNAc = biological target: Gal3S(b1-4)GlcNAc
# Outline: as §1
# [27] = biological target: Gal3S(b1-4)[Fuc(a1-3)]Glc6S
# Outline: as §1
# [28] = biological target: Gal3S(b1-4)[Fuc(a1-3)]GlcNAc
# Outline: as §1
# [29] = biological target: Gal3S(b1-4)[Fuc(a1-3)]GlcNAc6S
# Outline: as §1
# Gal3S4S(b1-4)GlcNAc = biological target: Gal3S4S(b1-4)GlcNAc
# Outline: as §1
binder,measurement,setting,value
B1,glycan array binding signal (z-score),[1],1.49
same,glycan array binding signal (z-score),[2],-0.329
same,glycan array binding signal (z-score),[3],-0.668
same,glycan array binding signal (z-score),[4],1.23
same,glycan array binding signal (z-score),[5],1.12
same,glycan array binding signal (z-score),[6],-0.052
same,glycan array binding signal (z-score),[7],-0.236
same,glycan array binding signal (z-score),[8],2.82
same,glycan array binding signal (z-score),[9],0.306
same,glycan array binding signal (z-score),[10],2.38
same,glycan array binding signal (z-score),[11],2.48
same,glycan array binding signal (z-score),[12],0.168
same,glycan array binding signal (z-score),[13],-0.417
same,glycan array binding signal (z-score),[14],-0.503
same,glycan array binding signal (z-score),[15],-0.127
same,glycan array binding signal (z-score),[16],0.379
same,glycan array binding signal (z-score),[17],-0.584
same,glycan array binding signal (z-score),[18],-0.558
same,glycan array binding signal (z-score),[19],-0.615
same,glycan array binding signal (z-score),[20],-0.335
same,glycan array binding signal (z-score),[21],0.379
same,glycan array binding signal (z-score),[22],-0.313
same,glycan array binding signal (z-score),[23],2.18
same,glycan array binding signal (z-score),[24],-0.281
same,glycan array binding signal (z-score),[25],-0.595
same,glycan array binding signal (z-score),Gal(b1-4)GlcNAc6P,-0.309
same,glycan array binding signal (z-score),Gal(b1-6)Gal,-0.352
same,glycan array binding signal (z-score),Gal3S(b1-3)GalNAc,0.31
same,glycan array binding signal (z-score),Gal3S(b1-3)GlcNAc,0.117
same,glycan array binding signal (z-score),[26],0.319
same,glycan array binding signal (z-score),Gal3S(b1-4)Glc,1.84
same,glycan array binding signal (z-score),Gal3S(b1-4)Glc6S,0.902
same,glycan array binding signal (z-score),Gal3S(b1-4)GlcNAc,0.834
same,glycan array binding signal (z-score),[27],-0.343
same,glycan array binding signal (z-score),[28],-0.275
same,glycan array binding signal (z-score),[29],3.25
same,glycan array binding signal (z-score),Gal3S4S(b1-4)GlcNAc,-0.051

# From the supplement of paper PMC8728848
